Source: paper PMC3868573
These are yes or no findings as the source states them, for the method shown. In cells and extracts the contact can be indirect. Some binding calls cover weakened binding; strength is not graded here. Tags and fused reporters may be left off the sequences shown.

Molecular target: myc-tagged wild-type human APOBEC3G (human), Q9HC16
Experiment: co-IP; 293T cells co-transfected with HA-tagged wild-type or mutant hA3G and hA3G-myc; lysed after 48 h in RIPA buffer (50 mM Tris-HCl pH 7.4, 150 mM NaCl, 1% NP-40, 0.5% sodium deoxycholate, 0.1% SDS); anti-myc affinity gel 1 h at 4°C; blot with anti-HA; wild-type immune complexes also with or without 25 U RNase A
Conditions: remark: other sources report otherwise

binding: binds
B1: HA-tagged wild-type human APOBEC3G, Q9HC16 1-384 (protein)
chain: MKPHFRNTVERMYRDTFSYNFYNRPILSRRNTVWLCYEVKTKGPSRPPLDAKIFRGQVYSELKYHPEMRFFHWFSKWRKLHRDQEYEVTWYISWSPCTKCTRDMATFLAEDPKVTLTIFVARLYYFWDPDYQEALRSLCQKRDGPRATMKIMNYDEFQHCWSKFVYSQRELFEPWNNLPKYYILLHIMLGEILRHSMDPPTFTFNFNNEPWVRGRHETYLCYEVERMHNDTWVLLNQRRGFLCNQAPHKHGFLEGRHAELCFLDVIPFWKLDLDQDYRVTCFTSWSPCFSCAQEMAKFISKNKHVSLCIFTARIYDDQGRCQEGLRTLAEAGAKISIMTYSEFKHCWDTFVDHQGCPFQPWDGLDEHSQDLSGRLRAILQNQEN
